Source: the antibiotic and cytotoxicity screens of Wong et al. (2023)
This is one part of the list.

Each molecule was assayed on HSkMC (human skeletal muscle cells) (assay: cytotoxicity call (relative viability < 0.9)). Conditions: 10 µM.

Row | Structure (SMILES) | cytotoxicity call
1 | O=C(C[C@@H]1CC[C@@H]2[C@H](COC[C@@H](O)CN2S(=O)(=O)c2ccc(F)cc2)O1)NCCN1CCCCC1 | inactive
2 | NCCc1[nH]cnc1-c1cccs1 | inactive
3 | CC(C)CNC(=O)[C@@]1(c2ccc([N+](=O)[O-])cc2)CC(=O)N(CC23CC4CC(CC(C4)C2)C3)[C@@H]1c1ccc(CO)cc1I | inactive
4 | CNC1(C)C2CCC(C2)C1(C)C.Cl (stereo not given) | inactive
5 | Nc1nc(-c2ccccc2)cc[n+]1[O-] | inactive
6 | Cc1ccc(C(=O)Nc2ccc(S(=O)(=O)[O-])c3cc(S(=O)(=O)[O-])cc(S(=O)(=O)[O-])c23)cc1NC(=O)c1cccc(NC(=O)Nc2cccc(C(=O)Nc3cc(C(=O)Nc4ccc(S(=O)(=O)[O-])c5cc(S(=O)(=O)[O-])cc(S(=O)(=O)[O-])c45)ccc3C)c2)c1.[Na+].[Na+].[Na+].[Na+].[Na+].[Na+] | inactive
7 | O=C(c1ccncc1)N1C[C@H]2[C@@H](c3ccccc31)[C@@H](CO)N2C(=O)CN1CCOCC1 | inactive
8 | CN(C)c1ccc(O)c2c1C[C@H]1C[C@H]3[C@H](N(C)C)C(=O)[C@@H](C(N)=O)C(=O)[C@@]3(O)C(=O)[C@H]1C2=O | inactive
9 | C[C@@H]1CCCCO[C@@H](CN(C)C(=O)Nc2ccc3c(c2)OCO3)[C@H](C)CN([C@@H](C)CO)C(=O)c2cc(NC(=O)Nc3cccc4ccccc34)ccc2O1 | inactive
10 | COc1ccc(CN(C)C[C@H]2OCCCC[C@H](C)Oc3ccc(NC(=O)CCC(F)(F)F)cc3C(=O)N([C@H](C)CO)C[C@@H]2C)cc1 | inactive
